The values below come from ChEMBL document CHEMBL4888484, “Replenishing the malaria drug discovery pipeline: Screening and hit evaluation of the MMV Hit Generation Library 1 (HGL1) against asexual blood stage Plasmodium falciparum ,using a nano luciferase reporter read-out” (2022).

SMILES strings stand for the structures. About 540 (0.36%) of roughly 150,000 compounds showed an effect of 50% or more. The list shows a part of the results.

The % Inhibition is the change of the read-out against control, counted positive when it falls.

The test deals with Plasmodium falciparum. The experiment in a line: Primary screen in NF54 nanoGlo assay, in single point, at 2uM, 72h; a lower Z score goes with more inhibition. In kind it is functional, Erythrocyte. The conditions noted are these: timepoint 72 hour.
Consider `Cc1cc(CS(=O)(=O)N2CCC[C@H]2c2noc(C)n2)no1`, for which the “% Inhibition” value is on record as 32% and the Z score is reported as -0.6.
Consider `O=C(Nc1cccnc1)NC1C2CCC(C2)C1CO` (stereo not given), for which the “% Inhibition” value is given as -11% and the Z score was 1.5.
As for `O=C1[C@@H]2CCCN2C(=O)N1C1CCN(c2ccccn2)C1` (stereo not given in full), the “% Inhibition” value is recorded as -11% and the Z score turned out to be 1.65.
For the compound `O=C(c1cn(CC2CC2)nn1)N1C[C@@H]2CCCN2Cc2ccccc21`, the “% Inhibition” value is reported as -2% and the Z score worked out at 0.32.
Turning to `Cc1ccc([C@H](C)N(C)c2ncnc3ccsc23)s1`, the “% Inhibition” value is -1% and the Z score is reported as 0.17.
Turning to `CC[C@H](C)N(Cc1cc(NC(=O)NC(C)C)ccc1N(C)C)C(=O)CC(C)(C)C`, the “% Inhibition” value is 3% and the Z score was -0.39.
In the same order, the values of `Cc1nc(C)c(-c2cc(C(=O)NC3CCCCCC3)[nH]n2)s1` are -4% and 0.55.
Take `CCN(CC(=O)Nc1ccc2c(c1)OCCO2)CC(=O)N1CCc2ccccc2C1`: the “% Inhibition” value is -4% and the Z score came out at 0.62.
In the same order, the values of `O=C(Cc1c(F)cccc1Cl)Nc1cccc(C(=O)NC2CC2)c1` are 10% and -1.14.
In the case of `CC(C)CN(CCC(=O)Nc1ccccc1C#N)C(C)C`, the “% Inhibition” value is -8% and the Z score amounted to 1.2.
As to `CCOC[C@H]1CCCN1C(=O)C1(N2CCCCC2)CCCCC1`, the “% Inhibition” value is listed as -6% and the Z score is given as 1.1.
Regarding `C[C@H](OC(=O)c1ccc2c(c1)OCCCO2)c1nc2ccccc2o1`, the “% Inhibition” value is given as -7% and the Z score is on record as 0.78.
For `C[C@H]1CCc2nc(O)c(C(=O)N3CCN(C)CC3)cc2C1`, the “% Inhibition” value is reported as -1% and the Z score was 0.17.
As for `CCN(C(=O)Nc1ccc(C(F)(F)F)cc1)[C@H]1COC[C@@H]1O`, the “% Inhibition” value was -7% and the Z score worked out at 1.18.
Take `COCCNc1ccc(CNC(=O)N2CC[C@@H](C)O[C@@H](C)C2)cc1`: the “% Inhibition” value was -9% and the Z score was determined as 1.42.
On to `CCn1cc(Br)cc1C(=O)N1CCCN2CCC[C@H]2C1`, for which the “% Inhibition” value is listed as -4% and the Z score was determined as 0.46.
For the compound `Cc1nnsc1C(=O)NC1CCCC(OC(=O)Nc2ccc(F)cc2)C1` (stereo not given), the “% Inhibition” value worked out at 10% and the Z score is reported as -1.63.
`CCCN(CC#N)C(=O)c1cc(F)c(Cl)cc1Cl`: the “% Inhibition” value is -10% and the Z score is listed as 1.25.
As to `COc1ccc(Cc2nnc(C)o2)cc1Cl`, the “% Inhibition” value is recorded as -5% and the Z score came out at 0.73.
Consider `Cc1ccc(C)c(-c2n[nH]cc2CN[C@H]2CCCN(c3ncccn3)C2)c1`, for which the “% Inhibition” value is -11% and the Z score is recorded as 1.21.
In the same order, the values of `O=C(COc1ccc(F)cc1)N1CC[C@H](OCCCc2ccccc2)C1` are -13% and 1.88.
As for `Cc1nn(CC(=O)N2C[C@H](C)[C@@](O)(C3CC3)C2)cc1Cl`, the “% Inhibition” value is -4% and the Z score was 0.49.
With `CC(=O)N[C@@H](C)c1nc(-c2cccnn2)no1`, the “% Inhibition” value is recorded as -3% and the Z score amounted to 0.36.
Take `COC1CC(N(C)C(=O)NC2CC(C)n3ccnc32)C12CCC2` (stereo not given): the “% Inhibition” value is given as 33% and the Z score was -3.7.
With `Cc1ccc(CC(=O)N2CCC(CN3C[C@@H](C(=O)N4CCCC4)CC3=O)CC2)cc1`, the “% Inhibition” value was 0% and the Z score turned out to be 0.01.
In the case of `Cc1ccc(CNC(=O)NCC(=O)N2CCC=C(F)C2)cc1`, the “% Inhibition” value is given as 0% and the Z score stood at 0.03.
In the same order, the values of `CC(C)(NS(=O)(=O)CCCN1CCOCC1)c1cccc(F)c1` are 7% and -1.09.
With `Cc1nccnc1N1C[C@H](C(C)C)[C@@H](N(C)C)C1`, the “% Inhibition” value is recorded as -10% and the Z score came out at 1.72.
In the same order, the values of `CN(C)Cc1csc(CN(C)Cc2cccc(O)c2)c1` are 2% and -0.25.
In the same order, the values of `O=C(c1c(F)ccc(F)c1F)N1CCC[C@H](c2nc(-c3ccncc3)ncc2-c2ccccc2)C1` are 13% and -1.72.
As for `Cc1nn(C)c(C)c1CCC(=O)N1C[C@H]2CC[C@@H](C1)N(CC1CC1)C2`, the “% Inhibition” value was 1% and the Z score was -0.22.
For the compound `CCOc1ccc(Cl)cc1CNCCOC`, the “% Inhibition” value is -10% and the Z score was found to be 1.91.
Regarding `O=c1[nH]c(=O)n(Cc2ncc(-c3ccccc3)o2)cc1Cl`, the “% Inhibition” value is -3% and the Z score was found to be 0.28.
In the same order, the values of `COCC1(C(=O)NCc2cc(-c3ccccc3Cl)on2)CCC1` are -4% and 0.56.
Regarding `COCCOc1ccc(N)c(C(F)(F)F)c1`, the “% Inhibition” value is on record as -13% and the Z score amounted to 1.31.
Take `CC(C)(C)n1cc(CNC2(Cc3ccc(F)cc3Cl)CCOCC2)nn1`: the “% Inhibition” value worked out at 8% and the Z score was -0.88.
As to `O=C(c1ccc(Cl)cc1)N1CCN(c2nc3ccccc3c3nnc(C4CC4)n23)CC1`, the “% Inhibition” value was -3% and the Z score turned out to be 0.41.
In the same order, the values of `CC1(C)C[C@@H]1C(=O)N[C@H]1CC[C@H](O)CC1` are -10% and 1.35.
Consider `O=C(c1ccccc1NCC(=O)N1CCNC1=O)N1CCC[C@H](O)C1`, for which the “% Inhibition” value was -6% and the Z score worked out at 1.01.
In the same order, the values of `COCCn1ccc(NC(=O)NC2(c3ccccc3)CCCC2)n1` are -21% and 1.91.
As to `COc1cc(OC)cc(-n2nnc(-c3nc(-c4ccc5c(c4)OCO5)cs3)c2N)c1`, the “% Inhibition” value turned out to be 10% and the Z score was -1.18.
For the compound `CC(C)C(=O)N1C[C@H](O)C[C@H]1c1nnc2n1CCN(Cc1ccc(F)c(F)c1)C2`, the “% Inhibition” value is reported as -7% and the Z score is reported as 0.77.
As to `CCOc1ccc(C(=O)N2c3ccccc3C(Nc3ccccc3)[C@H](C)C2CC)cc1` (stereo not given in full), the “% Inhibition” value is -11% and the Z score was determined as 1.37.
With `COCc1nnc2n1CC[C@@H](NC(=O)c1ccoc1)CC2`, the “% Inhibition” value is reported as -7% and the Z score was determined as 1.11.
In the case of `CN1C(=O)C[C@H](C(=O)NCCCc2ncc[nH]2)C1(C)C`, the “% Inhibition” value is listed as 1% and the Z score is -0.1.
As to `Cc1ccc(CN2CCC(CNC(=O)c3cccc(NC(=O)c4nnc(C)s4)c3)CC2)cc1`, the “% Inhibition” value is -10% and the Z score was 1.3.
In the same order, the values of `CN(C)c1cccc(C(=O)N2CCC(O)CC2)c1` are -5% and 0.81.
Regarding `O=C1N[C@@H](c2ccc(OCc3ccc(Cl)cc3Cl)cc2)Nc2c1sc(=S)n2-c1ccccc1`, the “% Inhibition” value was -3% and the Z score worked out at 0.31.
Turning to `Cc1c(-c2c(-c3ccccc3)ncn2[C@H](C)c2ccccc2)cnn1C`, the “% Inhibition” value is 10% and the Z score was -1.28.
For `CC(=O)Nc1cccc(NC(=O)N(CCN(C)C)CC(C)C)c1`, the “% Inhibition” value is -1% and the Z score is reported as 0.22.
Turning to `Cn1c(=O)c(-c2nc(-c3ccccc3Br)no2)c(O)c2cc(F)ccc21`, the “% Inhibition” value is recorded as -5% and the Z score is on record as 0.63.
As for `N#C[C@@H]1CC[C@H](NC(=O)N2CC(F)C2)C1`, the “% Inhibition” value is listed as -5% and the Z score is given as 0.5.
Turning to `CN(Cc1ccccc1)[C@H]1CCCN(c2nc3c(cc2C(N)=O)CCC3)C1`, the “% Inhibition” value is reported as 5% and the Z score was -0.75.
In the same order, the values of `COc1ccc(Br)c(C(=O)N2CC3(C[C@H](N4CCN(C)CC4)CO3)C2)c1` are -12% and 1.87.
With `O=C(COc1ccc(Cl)cc1)N1CCc2ccccc2[C@H]1c1ccccc1Cl`, the “% Inhibition” value was -1% and the Z score amounted to 0.15.
`CCn1nc(C)c(CNCCN2CCc3ccccc3C2)c1C`: the “% Inhibition” value came out at 6% and the Z score is -0.77.
With `Cc1cccc(N2CCN(C(=O)c3nnn4cc(C)[nH]c(=O)c34)CC2)c1`, the “% Inhibition” value is -10% and the Z score was determined as 1.16.
For the compound `CC(=O)N[C@H]1C[C@H](c2cc(NCCCNc3cccnc3)ncn2)C1`, the “% Inhibition” value was -1% and the Z score was determined as 0.07.
On to `O=C1NC2(CCCCC2)C(=O)N1c1ccccc1`, for which the “% Inhibition” value came to 28% and the Z score is -3.17.
On to `Cc1nc(COC(C)(C)C)oc1C(=O)N[C@H]1CCCn2ncnc21`, for which the “% Inhibition” value is listed as -8% and the Z score came to 1.21.
As for `O=C(COC(=O)c1ccc(-c2ccccc2)cc1)Nc1cccc(S(=O)(=O)N2CCOCC2)c1`, the “% Inhibition” value was -22% and the Z score amounted to 4.23.
`Cc1c(CN2CCN(C3CCN(C(C)C)CC3)[C@@H](CCO)C2)[nH]c2c(C)cccc12`: the “% Inhibition” value is -5% and the Z score came to 0.61.
In the case of `CCC(C)[C@H](NC(=O)[C@H]1CC[C@H](CNC(=O)[C@@H](CC(C)C)NC(=O)OC(C)(C)C)CC1)C(=O)O` (stereo not given in full), the “% Inhibition” value is -11% and the Z score is reported as 1.38.
As for `COc1cccc(N2CCN(C(=O)c3cnn(-c4cccc(F)c4)c3C3CCN(C(=O)OC(C)(C)C)CC3)CC2)c1`, the “% Inhibition” value is listed as -6% and the Z score came out at 1.06.
In the same order, the values of `C[C@H]1CN(Cc2nccs2)C[C@]1(O)C1CCC1` are -1% and 0.2.
Consider `O=C(CC(F)(F)F)NCc1ccccn1`, for which the “% Inhibition” value was 41% and the Z score is given as -5.53.
For `COc1ccsc1CNC12CCCCC1C2` (stereo not given), the “% Inhibition” value turned out to be 4% and the Z score is listed as -0.73.
In the same order, the values of `COc1cccc(OC)c1OCC#CCN1CCC(C)CC1` are 2% and -0.37.
In the case of `COCCN1CC[C@H](c2ncnn2-c2cccnc2)C1`, the “% Inhibition” value is reported as -4% and the Z score came to 0.76.
Take `O=C(CS(=O)(=O)C1CCCC1)N1CC[C@H](C(F)(F)F)C1`: the “% Inhibition” value is recorded as -6% and the Z score was 1.18.
For the compound `Cc1nc(O)cc(CCNC(=O)[C@H](O)c2cccc(Cl)c2)n1`, the “% Inhibition” value came to 7% and the Z score is recorded as -0.79.
`CCNC(=O)c1ccc(NCc2nc(C3OCCO3)cs2)cc1`: the “% Inhibition” value came out at 3% and the Z score was -0.55.
In the same order, the values of `Cc1cccc(-c2noc([C@H](Cc3ccccc3)NC(=O)C3CCC3)n2)c1` are -2% and 0.19.
Consider `Nc1cc(N[C@H]2CCCN(CCCc3ccccc3)C2)ncn1`, for which the “% Inhibition” value is -9% and the Z score amounted to 1.81.
Consider `Cc1cccc(-c2nnc3n2C[C@@H](C(=O)NCc2oc(C)nc2C)CC3)c1`, for which the “% Inhibition” value was -9% and the Z score turned out to be 1.83.
In the same order, the values of `O=C(C1COCCN1CC(F)F)N1CCCC(OCCO)C1` (stereo not given) are -8% and 1.34.
Regarding `COC(=O)CC1(NC(=O)c2ccc3c(c2)OCO3)CCCC1`, the “% Inhibition” value is on record as 4% and the Z score is on record as -0.32.
On to `O=C(CCc1ccc(F)cc1F)Nc1cnccn1`, for which the “% Inhibition” value is -3% and the Z score is recorded as 0.52.
As to `COc1cccc(F)c1-c1c(-c2ccccc2)ncn1Cc1cnc(C)cn1`, the “% Inhibition” value is given as -4% and the Z score stood at 0.68.
Turning to `N#C[C@@H]1CN(C(=O)CCn2nc3ccccn3c2=O)CCO1`, the “% Inhibition” value is given as -5% and the Z score was determined as 0.77.
In the case of `Cc1csc(CC(=O)c2ccc(O)cc2O)n1`, the “% Inhibition” value is on record as -10% and the Z score turned out to be 1.33.
In the case of `COC(=O)c1c(-c2cccc(Cl)c2)noc1Nc1ccc(C)c(Cl)c1`, the “% Inhibition” value came to 14% and the Z score is listed as -2.22.
As for `c1cncc(-c2nc([C@@H]3CCCCO3)no2)c1`, the “% Inhibition” value is on record as -5% and the Z score is 1.03.
In the same order, the values of `O=C(Nc1ccccc1-n1ccnc1)c1[nH]nc(C2CC2)c1Cl` are -11% and 1.26.
Turning to `CN(CCc1ccccc1C(=O)N1CC(C)(O)C1)C(=O)OC(C)(C)C`, the “% Inhibition” value was -10% and the Z score turned out to be 1.36.
